# According to paper PMC4336329 (PLoS ONE, 2015):
# Hit rate of the full screen: of about 310,000 compounds, about 2,200 (0.71%) showed an effect of 50% or more. Effects have a minus sign here. Some of the results follow.
# Target: human ether-à-go-go-related gene (hERG) potassium channel (human, UniProt Q12809)
# Assay: primary screen, population patch clamp on CHO cells stably expressing hERG
# Chain of human ether-à-go-go-related gene (hERG) potassium channel (Q12809 whole entry, looked up): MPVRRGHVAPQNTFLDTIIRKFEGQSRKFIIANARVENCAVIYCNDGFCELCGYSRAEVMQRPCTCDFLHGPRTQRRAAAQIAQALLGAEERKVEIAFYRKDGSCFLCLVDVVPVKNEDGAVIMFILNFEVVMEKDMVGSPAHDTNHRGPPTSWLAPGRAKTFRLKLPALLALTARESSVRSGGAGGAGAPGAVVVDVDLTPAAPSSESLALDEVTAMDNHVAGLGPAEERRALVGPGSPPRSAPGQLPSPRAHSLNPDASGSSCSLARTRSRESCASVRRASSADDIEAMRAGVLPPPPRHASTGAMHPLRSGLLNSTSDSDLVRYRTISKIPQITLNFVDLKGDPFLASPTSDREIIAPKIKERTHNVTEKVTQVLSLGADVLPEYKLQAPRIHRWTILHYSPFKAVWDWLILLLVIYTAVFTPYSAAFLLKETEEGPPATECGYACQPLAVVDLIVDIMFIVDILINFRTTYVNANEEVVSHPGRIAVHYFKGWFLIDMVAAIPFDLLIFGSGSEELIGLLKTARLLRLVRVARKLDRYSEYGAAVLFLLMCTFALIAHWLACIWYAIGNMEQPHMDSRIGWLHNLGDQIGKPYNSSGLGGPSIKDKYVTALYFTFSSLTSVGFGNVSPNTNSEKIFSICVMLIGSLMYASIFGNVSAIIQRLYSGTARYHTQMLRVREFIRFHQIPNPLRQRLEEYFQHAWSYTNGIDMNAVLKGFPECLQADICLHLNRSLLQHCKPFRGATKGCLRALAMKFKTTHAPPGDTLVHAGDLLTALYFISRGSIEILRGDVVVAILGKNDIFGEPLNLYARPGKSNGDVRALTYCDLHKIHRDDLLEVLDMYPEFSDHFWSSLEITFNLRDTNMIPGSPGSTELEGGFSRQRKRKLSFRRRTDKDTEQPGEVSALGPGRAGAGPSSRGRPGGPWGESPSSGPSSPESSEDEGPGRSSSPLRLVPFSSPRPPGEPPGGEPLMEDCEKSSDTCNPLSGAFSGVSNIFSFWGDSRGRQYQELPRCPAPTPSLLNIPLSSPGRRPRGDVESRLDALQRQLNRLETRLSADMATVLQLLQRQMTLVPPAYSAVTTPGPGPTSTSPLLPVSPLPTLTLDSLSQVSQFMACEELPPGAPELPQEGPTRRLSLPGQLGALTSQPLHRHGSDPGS
row,SMILES,"hERG current change (%, negative = inhibition) at 1uM [%]"
1,CC(C)(C)OC(=O)C(C)(C)O/N=C(\C(=O)O)c1csc(N)n1,20.7
2,O=C(COc1ccccc1)Nc1ccccc1N1CCN(c2ccc(F)cc2)CC1,16.9
3,Cc1cc(C(=O)N2CCN(c3ccccc3)CC2)c(C)o1,7.91
4,CN(c1ccc(OCC(=O)N2CCN(C/C=C/c3ccccc3)CC2)cc1)S(=O)(=O)c1cccs1.Cl,9.94
5,CN(C)C=Nc1ncc2c3ccccc3n(Cc3ccccc3)c2c1C#N,9.29
6,CC(C)CC(=O)NC(=S)Nc1cccc(NC(=O)c2ccccc2)c1,-11.4
7,CCOC(=O)CSc1nnc(CNC(=O)Cc2ccccc2)n1C,3.36
8,COCCn1c(=NC(=O)/C=C/c2cccs2)sc2cc(NC(C)=O)ccc21,6.09
9,CC1CC(C)CN(S(=O)(=O)c2ccc3c(c2)C(C)(C)C(=O)N3C)C1 (stereo not drawn),-2.13
10,COC(=O)/C=C1\SC(=NC(=O)c2ccc(C)cc2)NC1=O,22.1
11,CCOC(=O)c1c(C)oc(NC(=O)COc2ccc(Cl)cc2C)c1C#N,12
12,O=C(CCc1ccccc1)N1N=C(c2ccncc2)CC1(O)C(F)(F)F (stereo not drawn),11.5
13,COc1cc(CNc2ccc3[nH]c(=O)[nH]c3c2)ccc1OCc1ccc(Cl)cc1,23.2
14,COc1cccc(NC(=O)c2cccc(Cl)c2)c1,-1.32
15,COc1ccc(CNC(=O)CN2C(=O)CSc3ccc(S(=O)(=O)N4CCCCC4)cc32)cc1,-5.63
16,CCNC(=O)NC1(C(=O)Nc2ccc3c(c2)OCCO3)CCCCC1,4.95
17,CC1(C)Cc2c(sc3ncn4nc(-c5ccco5)nc4c23)CO1,12.1
18,Cc1ccc2cccc(NC(=S)NC(=O)c3c(Br)cnn3C)c2n1,3.43
19,CCOC(=O)Cn1nc(C)cc1NC(=O)c1cc(OC)c(OC)c(OC)c1,14.1
20,COc1ccc(NC(=O)COC(=O)/C=C/c2ccccc2[N+](=O)[O-])cc1OC,8.9
21,Cc1ccc(SCc2ccc(C(=O)Nc3cccnc3)cc2)cc1,10.5
22,CCc1ccccc1N/N=C(/C)c1c(O)cc(C)oc1=O,1.44
23,Cc1nc(N2CCOCC2)c2c(C)c(C(=O)Nc3ccccc3C(F)(F)F)sc2n1,4.86
24,N/C(=N/OS(=O)(=O)c1ccc([N+](=O)[O-])cc1)c1ccncc1,14.6
25,CCOC(=O)Cc1csc(NC(=O)c2cccs2)n1,-2.98
26,CCCNC(=O)Cn1nc([N+](=O)[O-])c([N+](=O)[O-])c1C,5.58
27,COCCN1C(=O)N(C)[C@@H](c2ccccc2)C(C(C)=O)=C1C,6.21

row,SMILES,"hERG current change (%, negative = inhibition) at 1uM [%]"
1,O=C(CCNC(=O)C1CCN(S(=O)(=O)c2ccc(F)cc2)CC1)Nc1nccs1,12.7
2,CCOc1ccc(NC(=O)CCC(=O)NNC(=O)Nc2cccc(Cl)c2)cc1,13.6
3,Cc1ccc(S(=O)(=O)NC(C(=O)N2CCOCCOCCOCCOCC2)C(C)C)cc1 (stereo not drawn),15
4,Cc1c(/C=N/NC(=O)CNc2ccccc2)c2ccccn2c1C(=O)c1ccc(Cl)cc1,10.7
5,CCn1cc(C(=O)NCCCN(CC(C)C)CC(C)C)c(=O)c2cc(S(=O)(=O)N3CCOCC3)ccc21,3.6
6,O=c1[nH]c2ccc(NC(=S)Nc3ccccc3Cl)cc2[nH]1,6.47
7,CC(C)(C)NC(=O)NC(=O)CN1CCC(Cc2ccccc2)CC1,3.83
8,O=C(c1ccc(N2CC3CC(C2)c2cccc(=O)n2C3)c([N+](=O)[O-])c1)N1CCCC1 (stereo not drawn),5.65
9,CCCCNC(=O)CCCCn1c(=S)[nH]c2c([nH]c3ccc(OC)cc32)c1=O,14.4
10,CCN(CC)c1ccc(NC(=S)NC(=O)C2CCC2)cc1,8.39
11,COc1ccc(C(=O)Nc2ccc3c(c2)nc(CCNC(C)=O)n3C)cc1,20
12,S=C(NC12CC3CC(CC(C3)C1)C2)N1CCOCC1,10.4
13,CCC(=O)Nc1c(C(=O)Nc2cccc(OC)c2)oc2ccccc12,10.1
14,CCOC(=O)c1c(C)[nH]c(C)c1C(=O)CSc1nnnn1-c1ccccc1,-1.78
15,COc1ccc(CCNc2cc(N3CCN(C(=O)c4ccc(C)cc4)CC3)ccc2[N+](=O)[O-])cc1OC,8.69
16,CCCn1c(SC(C(=O)Nc2cc(C)ccc2OC)c2ccccc2)nc2ccccc2c1=O (stereo not drawn),8.42
17,Cc1sc(NC(=O)CSc2nnc(CCNC(=O)c3cccs3)n2C)nc1-c1ccccc1,-27.7
18,COc1ccc(S(N)(=O)=O)cc1C(=O)N(C)CC(=O)Nc1ccc(N2CCOCC2)cc1,7.76
19,COc1ccccc1-n1c(SCC(=O)O)nc2c(sc(=S)n2-c2ccccc2C)c1=O,15.7
20,O=C(NCCCN1CCOCC1)c1ccc(/C=C2\Oc3ccccc3N(Cc3ccccc3F)C2=O)cc1,12.5
21,COc1ccc(S(=O)(=O)N2CCCC(C(=O)NCCN3CCOCC3)C2)cc1C (stereo not drawn),11.5
22,Cc1c(CC(=O)NC(C)C)c(=O)oc2cc3c(cc12)CCC(C)(C)O3,22.4
23,COc1cccc(CC(=O)Nc2nc(-c3cccnc3)cs2)c1,2.65
24,Cl.NC(=O)C1CCN(Cc2nnnn2Cc2ccco2)CC1,15.4
25,CN(CCc1ccccn1)C(=O)CCC1CCCN(C(=O)CCOc2ccccc2)C1 (stereo not drawn),3.56
26,COc1ccc2ccccc2c1-c1sc(Nc2ccccc2)n[n+]1-c1ccc(F)cc1.[Cl-],4.91
27,COc1cc(/C=C/c2noc(-c3ccccc3O)n2)cc(OC)c1OC,13.2
